Source: the BET-seq Pho4 binding data (Le et al. 2018)
Some of the results follow. The energies were worked out here from pooled read counts, against the library average; single values are noisy.

target: T1, Pho4 (S. cerevisiae) (UniProt P07270); test: relative binding free energy (BET-seq); higher = weaker binding; settings: reference: library average
T1 sequence: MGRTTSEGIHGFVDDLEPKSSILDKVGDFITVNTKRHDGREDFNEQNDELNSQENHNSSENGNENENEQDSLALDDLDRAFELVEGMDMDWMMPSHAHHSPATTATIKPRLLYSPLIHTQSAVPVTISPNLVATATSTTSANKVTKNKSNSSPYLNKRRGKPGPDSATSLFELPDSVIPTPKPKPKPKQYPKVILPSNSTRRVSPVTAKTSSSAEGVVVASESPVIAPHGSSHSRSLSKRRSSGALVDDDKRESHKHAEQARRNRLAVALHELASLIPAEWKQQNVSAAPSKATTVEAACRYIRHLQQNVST

Relative binding free energy, 0.32 kcal/mol:
GTGAACACGTGAGGCG
TTTTTCACGTGGACTA
GAGTACACGTGATGTA
TAGATCACGTGAGGCG
GGGTTCACGTGTTCAT

Relative binding free energy, -0.18 kcal/mol:
ATTAGCACGTGGGTAG
AAGTGCACGTGGTTTT

Relative binding free energy, -0.02 kcal/mol:
CGGGACACGTGTGTGT
AAGTGCACGTGTGGAG
TGAAGCACGTGGTCAA
TGTGTCACGTGGATCA
TGGTCCACGTGTTGGT
CTTGACACGTGTGTGT
CGTATCACGTGGGTGG

Relative binding free energy, -0.16 kcal/mol:
GGGAGCACGTGCGTGT
TATGGCACGTGCCGGT
ATTTGCACGTGCTTTA

Relative binding free energy, 0.21 kcal/mol:
AATTTCACGTGTGTTA

Relative binding free energy, -0.2 kcal/mol:
TGTTGCACGTGGTCGC

Relative binding free energy, -0.25 kcal/mol:
GGATGCACGTGCGCGG

Relative binding free energy, -0.05 kcal/mol:
AGTCGCACGTGGTAGA
TTGTGCACGTGGAATA
CATGTCACGTGTGCGG
GTCACCACGTGTGGTG
TTGAGCACGTGTTTGC
GGGGGCACGTGTGCTG

Relative binding free energy, -0.24 kcal/mol:
GTTGGCACGTGGTATA

Relative binding free energy, 0.3 kcal/mol:
TTATTCACGTGAGGGC
CTTTTCACGTGTAGGG

Relative binding free energy, -0.04 kcal/mol:
GGGTGCACGTGTCGCT
CGGTACACGTGGTATG

Relative binding free energy, 0.17 kcal/mol:
TTTATCACGTGACGGG
CTGTTCACGTGGTGAG
AGGGTCACGTGCGAGG
TTTTCCACGTGTCGTA
GGTATCACGTGTAGGC

Relative binding free energy, -0.13 kcal/mol:
TAGGCCACGTGGTTTA
AGGCGCACGTGGGGAA

Relative binding free energy, -0.11 kcal/mol:
ACGGTCACGTGGGGGC
AACCGCACGTGGTGGG
TTAGTCACGTGCTATA
TCTTGCACGTGCGTGT
GGTCGCACGTGGGGTC
TAAGGCACGTGGATGT
AGTGGCACGTGGGAAG

Relative binding free energy, 0.41 kcal/mol:
GGTCTCACGTGAGTGG

Relative binding free energy, -0.3 kcal/mol:
AGTGGCACGTGCGCGT

Relative binding free energy, 0.35 kcal/mol:
TATTTCACGTGACGGT
TCTTTCACGTGTGGTT
ATTTTCACGTGAGATG

Relative binding free energy, 0.67 kcal/mol:
ACGTTCACGTGAAGAG

Relative binding free energy, -0.08 kcal/mol:
TTTGGCACGTGGCTGG
AGGGACACGTGGGAGA
GTGCGCACGTGTTAGT

Relative binding free energy, -0.21 kcal/mol:
TGTGGCACGTGGGTGC

Relative binding free energy, 0.06 kcal/mol:
AGTTACACGTGGTAGA
GGTAACACGTGTTGTT
TGTTCCACGTGTTCGT
AAGTGCACGTGGAAGA
TAATGCACGTGCATTA
GATATCACGTGCGGGT

Relative binding free energy, -0.17 kcal/mol:
CAGTCCACGTGGGGGT
GGAGGCACGTGGGAGA

Relative binding free energy, -0.12 kcal/mol:
TTTGGCACGTGTTCGT
ATTTGCACGTGCGTTG
ACTGGCACGTGGTGAA
GATCGCACGTGGGTAG
TTTAGCACGTGGTCCT
TCGTGCACGTGGTGGT
CTAAGCACGTGGTTTA

Relative binding free energy, 0.34 kcal/mol:
CCTTTCACGTGTTAGG

Relative binding free energy, 0.1 kcal/mol:
CGGTTCACGTGCAGGT
CTTTTCACGTGGGGTA
TTATTCACGTGGGGGT
CATGGCACGTGAGATG
GACAACACGTGTGGGG
ATATCCACGTGTGATT

Relative binding free energy, -0.03 kcal/mol:
AGGTGCACGTGTGTCG
CGGAGCACGTGGTAAG
AGATGCACGTGTACGT
GAAGGCACGTGTGGTT
ATGGCCACGTGGTAGT

Relative binding free energy, 0.09 kcal/mol:
CTTGTCACGTGGTGGC
TTGGTCACGTGCGGTA

Relative binding free energy, 0.33 kcal/mol:
TAACTCACGTGATGTG
GTATTCACGTGGAATT
GTCGTCACGTGAGGAA
GGTTTCACGTGTTAGC
TGATTCACGTGGACTG

Relative binding free energy, 0.2 kcal/mol:
ATTATCACGTGTGGAA
GTAATCACGTGTGTGG
TGTCTCACGTGGATGT
TGTGTCACGTGATGTT
AAGTTCACGTGTTTGG

Relative binding free energy, 0.27 kcal/mol:
ACTTTCACGTGGGTAA
CCTTTCACGTGCGGGT
CGAATCACGTGATGTT
TGATTCACGTGGGAGA

Relative binding free energy, 0.22 kcal/mol:
TGTGTCACGTGTTGTT
TTGCTCACGTGTCGGG

Relative binding free energy, -0.29 kcal/mol:
GTTGGCACGTGGCACG

Relative binding free energy, 0.15 kcal/mol:
TCTTGCACGTGACGGT
CGAGACACGTGTTTTT

Relative binding free energy, 0.25 kcal/mol:
TATAGCACGTGACGTT
CGTTTCACGTGTTGGG

Relative binding free energy, 0.18 kcal/mol:
AGTGTCACGTGAAAGA
CTGAGCACGTGATGGT
GATCACACGTGTTTGG

Relative binding free energy, 0.01 kcal/mol:
TTCGACACGTGGAGGT
GGGTCCACGTGGGTTA
GTAAGCACGTGTATAT
CGTTGCACGTGTGTCT
AAGGTCACGTGTTCTT
GGGGTCACGTGGGCTG
TTGATCACGTGGCGGT

Relative binding free energy, -0.19 kcal/mol:
AGTCGCACGTGGGAAG

Relative binding free energy, 0.11 kcal/mol:
GTTGACACGTGTGGTT
GCTTTCACGTGGGTGT
GTATCCACGTGTTGTA

Relative binding free energy, 0.39 kcal/mol:
TTGTGCACGTGAATTG
ATTCTCACGTGAGTGA
GTTTGCACGTGAGAAA

Relative binding free energy, 0.02 kcal/mol:
AAAGGCACGTGTGATG
ACAAGCACGTGTAGGT
GTGTCCACGTGGATTT
CTGGTCACGTGGGTTA
GAGTACACGTGTATTG
GGTAGCACGTGTTGAG

Relative binding free energy, 0 kcal/mol:
GGGGACACGTGTACTG
AGAGGCACGTGTTACT
TGGTGCACGTGCGTTT
TCTGACACGTGGTATT
CGTGGCACGTGGATCT
CTAGTCACGTGGGGGA
TGCAGCACGTGTTTGT
AAGTCCACGTGTTGGG

Relative binding free energy, -0.15 kcal/mol:
CTGTACACGTGGGGTT

Relative binding free energy, -0.06 kcal/mol:
AGAAGCACGTGGTAAT

Relative binding free energy, 0.37 kcal/mol:
TGTTTCACGTGTGCCT

Relative binding free energy, 0.31 kcal/mol:
TGAATCACGTGAGTGC
TGTTTCACGTGGAGGA
TAGATCACGTGAAGTT
TTTTTCACGTGGGTTA

Relative binding free energy, 0.16 kcal/mol:
TGTGTCACGTGTTGTG
GTGTCCACGTGTGAGT
TGTATCACGTGTGGTA
GCATTCACGTGGGGTC
GTTCACACGTGTGGGA

Relative binding free energy, -0.23 kcal/mol:
AGAGGCACGTGGTGCT

Relative binding free energy, 0.29 kcal/mol:
TTGTTCACGTGTCGAT
CATTTCACGTGAGTGT
CGCATCACGTGAGGGT

Relative binding free energy, 0.07 kcal/mol:
TGCGGCACGTGATAGG
TTAGTCACGTGTATAC
ATTTTCACGTGTTCAG
TGCGGCACGTGAGCTG
GTATGCACGTGGAATG
TTGAGCACGTGTAGAT
CTGGACACGTGGATGG

Relative binding free energy, 0.45 kcal/mol:
ATTTCCACGTGAAGTT

Relative binding free energy, 0.28 kcal/mol:
CGGTTCACGTGGGGGT
TAATTCACGTGAAATT
GATGTCACGTGTCATG

Relative binding free energy, 0.23 kcal/mol:
GTGGTCACGTGACGTG

Relative binding free energy, 0.08 kcal/mol:
TGTTGCACGTGGAATC

Relative binding free energy, 0.4 kcal/mol:
GTTTTCACGTGATAGT

Relative binding free energy, -0.1 kcal/mol:
TTGCGCACGTGTATGG
TTTGACACGTGCAGGT
AGTGTCACGTGCTGCG
CGGTACACGTGGGGTG

Relative binding free energy, 0.12 kcal/mol:
ATATTCACGTGCGGGG
TGGGACACGTGATTTT
TGGAGCACGTGAGTGT
ATTCGCACGTGAAGTG
TGGCACACGTGTAAGG
GTAGTCACGTGGGTCG

Relative binding free energy, 0.24 kcal/mol:
GTATTCACGTGTGCAA
TGACTCACGTGATGTT
AGACTCACGTGTGTTA

Relative binding free energy, 0.42 kcal/mol:
TGGTTCACGTGAGGGC

Relative binding free energy, 0.03 kcal/mol:
TTTTGCACGTGATTGA
CGGGCCACGTGTGTTT
TGATACACGTGGCGGC
AGGGGCACGTGATTCA
GGGGACACGTGGTGGC

Relative binding free energy, 0.05 kcal/mol:
ATGTGCACGTGGAAGG
TTGTCCACGTGTGATT
AGTGCCACGTGATTGG
TTGTGCACGTGTGACT
TAAATCACGTGCTGGT
TAATACACGTGATGTT
GGCATCACGTGCTGGG

Relative binding free energy, -0.01 kcal/mol:
CGTTGCACGTGCTGTG
TTAAACACGTGCTTGT
TGTCGCACGTGTTGTG

Relative binding free energy, 0.13 kcal/mol:
ATCGGCACGTGAAGTG
GTAGTCACGTGGTTGA
GGTATCACGTGGTTAT
TGAGTCACGTGGTTCT
ATTTACACGTGGTGTC
GCGTACACGTGGTGTC
TTAGACACGTGAGTAT

Relative binding free energy, 0.19 kcal/mol:
TGACTCACGTGTGGCG
TTGAACACGTGATTAT
GGCCTCACGTGTTGGT
AACTTCACGTGTTTTT

Relative binding free energy, -0.09 kcal/mol:
TGTGACACGTGGATTG
GAGGGCACGTGGAGTG
TTATGCACGTGCTCTT
GCTGGCACGTGCTGTT
GAAGGCACGTGGTCAT
AGTGTCACGTGGCACG

Relative binding free energy, 0.38 kcal/mol:
TTTATCACGTGAGTAA
GGGTTCACGTGCCGTT

Relative binding free energy, 0.26 kcal/mol:
TGGGACACGTGTAGAT
AGTGACACGTGAATTT
TTATTCACGTGCTTTG
GTTTTCACGTGGGATT
CGGTTCACGTGGATAT
GGATCCACGTGAGTGG
GAGGTCACGTGTGGGA
TGGTTCACGTGTAATG

Relative binding free energy, 0.04 kcal/mol:
GTTATCACGTGTATTG
GGTAGCACGTGCGGTT
AAGTACACGTGTGGGC
TGGCGCACGTGTGGAG

Relative binding free energy, -0.14 kcal/mol:
TGGCGCACGTGGGATA

Relative binding free energy, 0.14 kcal/mol:
GCAGTCACGTGGAGGA
CTGTGCACGTGAGGGT
TGAATCACGTGTGATG
